Assay results: the supplement of paper PMC3334620
In all, about 33,000 sequences were measured (“E-score (-0.5 to 0.5)”: median about -0.035, highest 2% from about 0.35 on). The list shows a part of the results.

target: T1, Pdr3 (UniProt P33200); test: PBM E-score (8-mer binding enrichment) (E-score (-0.5 to 0.5)); higher = stronger / more preferred TF binding; most listed sequences are background and not binding sites; details: protein concentration: 200 nM; construct: GST-full length
T1 sequence: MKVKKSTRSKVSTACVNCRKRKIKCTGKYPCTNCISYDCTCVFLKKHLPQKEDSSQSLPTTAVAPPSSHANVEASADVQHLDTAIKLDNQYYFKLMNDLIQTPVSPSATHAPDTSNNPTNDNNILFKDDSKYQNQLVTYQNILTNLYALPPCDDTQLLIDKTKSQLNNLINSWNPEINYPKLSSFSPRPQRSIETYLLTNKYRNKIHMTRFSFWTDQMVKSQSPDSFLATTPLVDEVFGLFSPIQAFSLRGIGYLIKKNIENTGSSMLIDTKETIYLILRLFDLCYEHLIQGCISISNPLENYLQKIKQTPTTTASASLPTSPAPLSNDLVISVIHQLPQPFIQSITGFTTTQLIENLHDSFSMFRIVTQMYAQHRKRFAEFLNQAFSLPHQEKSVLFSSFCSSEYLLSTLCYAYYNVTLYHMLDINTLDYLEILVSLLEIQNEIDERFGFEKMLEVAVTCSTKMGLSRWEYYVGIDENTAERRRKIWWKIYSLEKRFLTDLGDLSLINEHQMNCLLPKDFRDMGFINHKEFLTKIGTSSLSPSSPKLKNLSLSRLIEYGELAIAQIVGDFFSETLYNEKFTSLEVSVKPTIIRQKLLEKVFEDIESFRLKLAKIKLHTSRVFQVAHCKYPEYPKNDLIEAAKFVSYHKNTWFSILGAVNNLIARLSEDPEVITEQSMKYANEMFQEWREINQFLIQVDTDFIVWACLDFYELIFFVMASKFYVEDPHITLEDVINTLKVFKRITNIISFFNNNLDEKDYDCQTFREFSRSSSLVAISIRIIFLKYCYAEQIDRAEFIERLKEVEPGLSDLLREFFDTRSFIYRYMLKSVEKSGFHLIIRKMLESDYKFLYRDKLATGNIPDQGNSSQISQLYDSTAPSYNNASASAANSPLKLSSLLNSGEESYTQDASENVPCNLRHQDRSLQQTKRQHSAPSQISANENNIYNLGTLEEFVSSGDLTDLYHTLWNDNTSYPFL
How it was run: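 GST-tagged yeast TFs (full-length or DNA-binding domain) were made by PURExpress in vitro transcription/translation and applied at about 100-200 nM to universal all-10-mer Agilent arrays. The arrays were made double-stranded by primer extension, on fresh or once-stripped slides. Bound protein was detected with fluorescent anti-GST, and scans were normalised with masliner. Each ungapped eight-base word, pooled with its reverse complement, received an E-score (modified Wilcoxon-Mann-Whitney statistic) from the Universal PBM Analysis Suite.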

| Sequence | PBM E-score |
| --- | --- |
| ATACCCGC | 0.289 |
| CTACGGGA | 0.148 |
| AGTCGAAG | -0.213 |
| ACCTCGCT | 0.149 |
| ACCGCACT | 0.0041 |
| CCTATTTA | 0.0255 |
| AGGAACCC | 0.00054 |
| AATAACAG | 0.00463 |
| CAACAGGA | -0.249 |
| TATATAGA | 0.0122 |
| AGGTGCGG | 0.182 |
| GGTGCACA | -0.158 |
| ATCGAAAG | -0.0034 |
| AAGACAGA | -0.0151 |
| AAACATTT | 0.00814 |
| GTTCGAAC | 0.0635 |
| CTTAAGGA | -0.142 |
| ATGCTCTC | -0.108 |
| ACGTGGCG | -0.149 |
| AAGTTAGC | 0.0401 |
| ATATTCCG | 0.426 |
| CGCGGAGC | 0.445 |
| CATAGTGC | 0.0492 |
| GGTTTGAA | -0.0274 |
| GCGGCACC | 0.267 |

| Sequence | PBM E-score |
| --- | --- |
| CGCTCTTA | 0.0395 |
| CTGACCCA | -0.288 |
| CCCGTTGC | -0.0103 |
| GCTGCGAC | -0.197 |
| GCAAGTTA | -0.0318 |
| TGTGCACA | -0.106 |
| CAACGTAG | -0.207 |
| ATACGACG | 0.0788 |
| GCAGACGA | 0.0069 |
| CCGTTAGA | 0.158 |
| CGAACAAG | 0.0812 |
| ATTAGAGA | -0.277 |
| GCATGATA | -0.0258 |
| CCAGTCAG | -0.176 |
| ACCACTAA | -0.0372 |
| ACGACAAT | 0.0247 |
| AAGGTGGT | -0.0672 |
| ACACCCGT | 0.0745 |
| GTCCGAAA | 0.264 |
| CGCAAGGA | 0.0382 |
| GGGCTATA | -0.115 |
| AGTGTGTC | 0.00745 |
| CGGCTAGC | 0.0828 |
| TCCCCGCA | 0.271 |
| GGCCAAAC | 0.00739 |

| Sequence | PBM E-score |
| --- | --- |
| AGTCTTGG | -0.237 |
| CATTGGCA | -0.15 |
| AACTCACT | -0.181 |
| CACATCGA | -0.151 |
| AAGAACAT | 0.0641 |
| CAAAGTTG | -0.106 |
| AAGGGGAT | -0.00357 |
| ATATTCGC | 0.0776 |
| GTCCGAGA | 0.321 |
| AATCCAGC | 0.00326 |
| GATACCCC | 0.0962 |
| ACTCATCT | -0.18 |
| CAATTCGG | 0.221 |
| CTGGAGAA | -0.315 |
| AGCCCCAA | -0.285 |
| CCACACTA | 0.058 |
| CCTATGTC | -0.0741 |
| ACGCGCAG | -0.172 |
| GAAATCGC | 0.0559 |
| AACTGTTC | 0.135 |
| CCCCCTAG | -0.342 |
| CAGATAGG | -0.173 |
| AGCGATAC | -0.164 |
| CTGAATAC | -0.0551 |
| TCATGCAA | 0.0604 |

| Sequence | PBM E-score |
| --- | --- |
| CAGAAAAG | 0.0862 |
| AAATCTCC | 0.0627 |
| AAGTCGAT | -0.0848 |
| CTAATGAG | -0.127 |
| ATGTTACC | 0.0491 |
| CCGCACGA | 0.0638 |
| ATAGCACG | -0.112 |
| AGTGCGCG | 0.0188 |
| GTGATCAA | -0.0371 |
| GTGGACTA | -0.0486 |
| GGCAGGCA | -0.0559 |
| CCTCAAGC | -0.113 |
| AAGCGGTG | -0.266 |
| CAAATAAA | -0.0153 |
| GTGCGGGA | 0.252 |
| ACGCGCCT | -0.0277 |
| CCCATGAC | -0.147 |
| AAGGTATT | 0.0601 |
| AAAACGTT | -0.0804 |
| ACCGGATA | 0.151 |
| CAATAGTC | -0.232 |
| GCCCGTGA | 0.102 |
| GCGAGCCC | 0.0251 |
| AATAGTCG | -0.00883 |
| CGGTAACA | 0.227 |

| Sequence | PBM E-score |
| --- | --- |
| CCTAGATA | -0.229 |
| AGCTCATA | 0.0122 |
| ACACAACT | -0.153 |
| AGCATTGA | -0.205 |
| TTCGTAAA | -0.213 |
| AGGGAGCA | -0.112 |
| CTGTAGGA | -0.00933 |
| AAGAGGCG | -0.0913 |
| AGAGCCAC | -0.154 |
| AAGCACTT | -0.0897 |
| GCCTAGCC | -0.0448 |
| CGTGACCA | -0.0378 |
| AGGCTCAT | -0.0553 |
| ACCAGAAA | -0.105 |
| CCCTCCAA | -0.217 |
| ACTATCTG | -0.339 |
| AAGTGCAT | -0.174 |
| GCGTTAAC | -0.108 |
| CTTTATGC | -0.0559 |
| ACATCGAG | -0.295 |
| TTGTAAAA | -0.125 |
| TCGAAGAA | 0.04 |
| ACAGAAAT | -0.0828 |
| ACCTGTAA | -0.179 |
| CCCAGTAA | -0.0462 |

| Sequence | PBM E-score |
| --- | --- |
| CCATACAC | 0.00239 |
| AGCGCGAG | -0.0774 |
| AAGCCACG | -0.0153 |
| AAATTGGC | 0.024 |
| AACGGCTG | 0.0388 |
| ATTCGCAG | -0.0389 |
| ACAAGGAG | 0.0247 |
| AAGTTAGA | 0.025 |
| ACAAGATG | -0.102 |
| CGAGATAG | -0.108 |
| TAATCCGA | 0.0593 |
| CTTAAAAG | -0.378 |
| CATGTTAG | -0.306 |
| ATGATTTG | 0.0369 |
| AGCCGGCA | 0.339 |
| AGAGCGAT | -0.147 |
| ATCTCAGG | 0.00088 |
| AGCCAACA | -0.0699 |
| ACCAAAGC | 0.0196 |
| AGGGTGGG | 0.00388 |
| ACGCGTGC | 0.0478 |
| ATCACGTA | -0.0663 |
| GCCACACC | -0.007 |
| ATTTGTAG | -0.179 |
| GCACGTCA | -0.225 |

| Sequence | PBM E-score |
| --- | --- |
| CCTACAAC | -0.12 |
| TATTATGA | -0.088 |
| GCCTGCCC | -0.0411 |
| AACCGCGG | 0.457 |
| CTGAGTTA | -0.195 |
| ATTGGATC | 0.0324 |
| CGGGAGGC | 0.112 |
| TGGTACAA | -0.139 |
| ACTAATCC | 0.0746 |
| CACTTTGA | -0.193 |
| CGAATTTA | 0.0465 |
| GCAATGTA | -0.0487 |
| ACCCCTGC | -0.097 |
| TAGGCATA | -0.229 |
| GCATTGGC | -0.309 |
| AAGCGCCT | 0.0078 |
| GAGGGCCC | -0.032 |
| ACGGCCGG | 0.344 |
| TAAGCGAA | -0.0916 |
| AATCTTGC | 0.0152 |
| ACATTTGA | 0.0119 |
| CATAGGCC | 0.028 |
